Test results taken from the supplement of paper PMC10600219.
Counter-ions that a name gives are not always drawn. ± gives the standard deviation of the averaged measurements. Whole data set: some 2,800 compounds, median “cell viability relative to vehicle” near 1.1, cut for the lowest 2% near 0.19. The list shows a part of the results.

tested on: NCI-H2228 parental; experiment: cell viability relative to vehicle (fraction of vehicle); NCI-H2228 is an ALK-positive lung cancer line and DTP means drug-tolerant persister; higher = less growth inhibition; conditions: 100 nM; treatment time 6 days
Procedure, shortened: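 Parental NCI-H2228 cells and drug-tolerant persister cells (made with 1000 nM of a targeted drug for 13 days) were seeded in 384-well plates. The next day, the 3114-agent TargetMol anti-cancer compound library was added at 100 nM, with DMSO as vehicle. After 6 days, ATP was read with the CellTiter-Glo 3D Cell Viability Assay. Each value is cell viability relative to vehicle-treated cells.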

SMILES	cell viability
C=CCn1c(=O)c2cnc(Nc3ccc(N4CCN(C)CC4)cc3)nc2n1-c1cccc(C(C)(C)O)n1 [Adavosertib]	0.752
CC(=O)OCC1=C(C(=O)O)N2C(=O)[C@@H](NC(=O)Cc3cccs3)[C@H]2SC1 [Cephalothin sodium]	1.03
O=C(Nc1cccc2cccnc12)c1ccc(N2C(=O)[C@@H]3[C@H](C2=O)[C@@H]2C=C[C@H]3C2)cc1 [IWR-1-endo]	1.09
COc1c(O)cc2oc3cc(O)c(CC=C(C)C)c(O)c3c(=O)c2c1CC=C(C)C [Mangostin]	1.14
CC1(C)S[C@@H]2[C@H](NC(=O)Cc3ccccc3)C(=O)N2[C@H]1C(=O)O [Penicillin G sodium salt]	1.3
CCCCc1nc(Cl)c(CO)n1Cc1ccc(-c2ccccc2-c2nnn[nH]2)cc1 [Losartan]	1.27
CCCCc1nc(Cl)c(CO)n1Cc1ccc(-c2ccccc2-c2nnn[nH]2)cc1 [Losartan potassium]	1.02
OC[C@H]1O[C@@H](Oc2ccc3c(c2)OC[C@H]2c4cc5c(cc4O[C@@H]32)OCO5)[C@H](O)[C@@H](O)[C@@H]1O [Trifolirhizin]	1.02
O=C(O)CCNC(=O)c1ccc(/N=N/c2ccc(O)c(C(=O)O)c2)cc1 [Balsalazide disodium salt dihydrate]	1.05
CCOc1cc(N)c(Cl)cc1C(=O)NCC1CN(Cc2ccc(F)cc2)CCO1 (stereo not given) [Mosapride Citrate]	0.96
COC(=O)[C@H](CCSC)NC(=O)c1ccc(NC[C@@H](N)CS)cc1-c1ccccc1 [FTI 277 hydrochloride]	0.897
Cc1cccc(Nc2ccccc2C(=O)O)c1C [Mefenamic acid]	1.1
CCC(C)n1ncn(-c2ccc(N3CCN(c4ccc(OCC5COC(Cn6cncn6)(c6ccc(Cl)cc6Cl)O5)cc4)CC3)cc2)c1=O (stereo not given) [Itraconazole]	0.989
C[n+]1ccccc1/C=N/O [Pralidoxime Chloride]	1.05
CN(C)CCNC(=O)c1cccn2c(=O)c3cc4ccccc4cc3nc12	0.847
Cc1c(CN2CCN(c3cccc(C(F)(F)F)c3)CC2)cc(-c2ccccc2)n1NC(=O)c1ccncc1 [Sudoterb free base]	1.05
C[C@H]1[C@H](OC(=O)CCC(=O)O)O[C@@H]2O[C@@]3(C)CC[C@H]4[C@H](C)CC[C@@H]1[C@@]24OO3 [Artesunate]	1.18
O=C(CNc1ccc2ccccc2c1)N/N=C/c1cc(Br)c(O)c(Br)c1O	1.05
Cc1ccsc1C(=CCCN1CCC[C@@H](C(=O)O)C1)c1sccc1C [Tiagabine]	0.877
O=C1c2c(O)cc(O)cc2O[C@H](c2cc(O)c(O)c(O)c2)[C@H]1O [Dihydromyricetin]	1.03
CNCCCN1c2ccccc2CCc2ccccc21 [Desipramine hydrochloride]	1.11
Cc1cc(C)c(CNC(=O)c2cc(-c3ccc(N4CCN(C)CC4)nc3)cc3c2c(C)cn3C(C)C)c(=O)[nH]1	1.28
O=C(O[C@@H]1Cc2c(O)cc(O)cc2O[C@H]1c1cc(O)c(O)c(O)c1)c1cc(O)c(O)c(O)c1 [(-)-Gallocatechin gallate]	1.07

SMILES	cell viability
CC(C)(C(=O)NCC(F)(F)C(F)(F)F)C(=O)N[C@@H]1C(=O)Nc2ccccc2-c2ccccc21	1.16
O=c1[nH]cnc2c1ncn2[C@H]1CC[C@@H](CO)O1 [Didanosine]	1.11
CN1CCN(c2ccc(OC(F)(F)F)c(Nc3ncc4c(n3)-c3c(c(C(N)=O)nn3CCO)CC4)c2)CC1	0.168
Nc1nc(O)c2ncn(CCC(CO)CO)c2n1 [Penciclovir]	1.04
Fc1ccc([C@@H]2CCNC[C@H]2COc2ccc3c(c2)OCO3)cc1 [Paroxetine hydrochloride]	1.13
Nc1ccc(S(=O)(=O)NCCc2ccccc2)cc1	0.952
Cn1c(O)c(C2=c3ccccc3=NC2=O)c2ccccc21 [Methylisoindigotin]	0.86
C[C@H]1COc2c(N3CCN(C)CC3)c(F)cc3c(=O)c(C(=O)O)cn1c23 [Levofloxacin Hemihydrate]	1.26
CC(C)=CCC[C@](C)(O[C@@H]1O[C@H](CO[C@@H]2O[C@H](CO)[C@@H](O)[C@H](O)[C@H]2O)[C@@H](O)[C@H](O)[C@H]1O)[C@H]1CC[C@]2(C)[C@@H]1[C@H](O)C[C@@H]1[C@@]3(C)CC[C@H](O[C@@H]4O[C@H](CO)[C@@H](O)[C@H](O)[C@H]4O[C@@H]4O[C@H](CO)[C@@H](O)[C@H](O)[C@H]4O)C(C)(C)[C@@H]3CC[C@]12C [Ginsenoside Rb1]	1.06
CCCC(=O)OCOC(=O)C1=C(C)NC(C)=C(C(=O)OC)C1c1cccc(Cl)c1Cl (stereo not given) [Clevidipine butyrate]	1.13
CN1CCC(OC(c2ccccc2)c2ccccc2)CC1 [Diphenylpyraline hydrochloride]	1.15
COc1cc(/C=C/C(=O)NCCn2c(C(F)(F)F)cc3ccccc32)cc(OC)c1OC	1.05
CC(C)=CCOc1c2ccoc2cc2oc(=O)ccc12 [Isoimperatorin]	1.06
C/C=C1\[C@H]2C=C(C)C[C@]1(N)c1ccc(=O)[nH]c1C2 [(-)-Huperzine A]	1.1
CN1CCN(C2CCN(C(=O)Nc3cc(Oc4ccc(NC(=O)C5(C(=O)Nc6ccc(F)cc6)CC5)c(F)c4)ccn3)CC2)CC1 [Golvatinib]	1.13
C[N+](C)(C)CCO.[Cl-] [Choline chloride]	1.01
Cn1cc(-c2ccc3nnc(Sc4ccc5ncccc5c4)n3n2)cn1	1.28
Clc1ccc(Nc2nnc(Cc3ccncc3)c3ccccc23)cc1 [Vatalanib 2HCl]	1.06
O=C1NC(=O)/C(=C/c2cccc(C(F)(F)F)c2)S1	1.03 ± 0.056
Cc1cc(O)c2c(c1)C(=O)c1cc(O)cc(O)c1C2=O [Emodin]	1.01
COC(=O)c1ccc2c(C(=Nc3ccc(N(C)C(=O)CN4CCN(C)CC4)cc3)c3ccccc3)c(O)[nH]c2c1 [Nintedanib Ethanesulfonate Salt]	1.03
O=C(O)CSCC(=O)NC1CCSC1=O (stereo not given) [Erdosteine]	1.03
